Reference: ChEMBL document CHEMBL4888484, “Replenishing the malaria drug discovery pipeline: Screening and hit evaluation of the MMV Hit Generation Library 1 (HGL1) against asexual blood stage Plasmodium falciparum ,using a nano luciferase reporter read-out” (2022)
About 540 (0.36%) of roughly 150,000 compounds showed an effect of 50% or more. The list shows a part of the results.

system: Plasmodium falciparum; assay: Primary screen in NF54 nanoGlo assay, in single point, at 2uM, 72h; a lower Z score goes with more inhibition; type: functional, Erythrocyte; settings: timepoint 72 hour

SMILES | % Inhibition | Z score
O=C(N[C@H]1CC(=O)N(Cc2ccccc2Cl)C1)c1coc2c1C(=O)CCC2 | 8% | -1.48
CO[C@H]1COC[C@H]1NC(=O)N1CCC2(CC(=O)c3ccccc3O2)C1 (some centres not stated) | -5% | 0.43
CN(C)C(=O)CN1CCN(C(=O)Cn2ccc(C(F)(F)F)n2)CC1 | -5% | 0.63
COCc1ncc(C)n1C[C@H]1CCCN(C2CCCCCC2)C1 | 3% | -0.33
CC[C@@H](C(=O)NC1CCCCC1)N1CCn2nc(C)cc2C1 | -4% | 0.55
CCCC1(CCC)NC(=O)N(Cc2cccc3cccnc23)C1=O | -13% | 2.15
c1cnc2ccc(OCc3nc(CC4CC4)no3)cc2c1 | 6% | -0.77
O=C(NCc1cccs1)C1CCOCC1 | 7% | -0.94
N#Cc1nc(NC(=O)COC[C@H]2CCCO2)ccc1Br | -2% | 0.38
CCCS(=O)(=O)CC(=O)Nc1cc(Br)c(F)cc1F | -12% | 1.43
Cc1nn(C(=O)CCC(=O)N2CCC(C)(c3noc(-c4ccncc4)n3)CC2)c2ccccc12 | 6% | -0.77
CCC(CC)C(=O)Nc1cc(C)cc(C)c1 | 5% | -0.64
Cc1ccc(CN2C[C@H](O)[C@@H](F)C2)c2ccccc12 | -12% | 2.35
COC[C@@H]1C[C@H](OC)CN1C(=O)c1cc(Cl)cn1C | -4% | 0.48
Cc1cc(OCCc2cc(Cl)c3c(c2)OCCCO3)nn1C | -5% | 0.84
C[C@H](NCCN1CCCC1=O)c1ccc(F)c(Cl)c1 | -7% | 0.96
COC(=O)c1cccc(OC)c1N(C)C(=O)c1cccc(S(=O)(=O)N2CCCCC2)c1 | -12% | 1.89
COc1cccc(-n2c(=O)n(CC3CC3)c(=O)c3c2ncn3Cc2ccc(F)cc2)c1 | -14% | 1.37
CC(C)CNC(=O)C(=O)NCCCN1CCCC1=O | -10% | 1.28
Cc1nc(C)c(C(=O)N[C@H](c2nc3ccccc3n2C(C)C)C(C)C)s1 | 3% | -0.39
CCCN(Cc1c(CC)nn(-c2ccc(OC)cc2)c1Oc1ccc(F)cc1F)C(=O)c1cccs1 | -1% | 0.2
O=C(CCS(=O)(=O)Cc1csc(C2CC2)n1)N1CCOCC1 | -1% | 0.12

SMILES | % Inhibition | Z score
CC(=O)N1CCC(NC(=O)N(Cc2ccccc2)Cc2nccs2)CC1 | -2% | 0.38
CC(=O)N1CC[C@H](Cc2ncc(C)n2C(C)C)C1 | -8% | 0.96
O=c1c2cnc3c(-c4ccccc4)cnn3c2ccn1C[C@H]1CCCO1 | -25% | 2.29
O=C(NCc1cccnc1-c1ccccc1)c1cccc(Cl)c1 | -2% | 0.21
Cc1ccsc1[C@H]1CCN(Cc2cccn2-c2ncccn2)C[C@@H]1O | 8% | -1.32
O=C(COc1ccc(F)cc1)Nc1noc(-c2ccccc2)n1 | 4% | -0.4
CCc1nccn1CC(=O)NC(CC)[C@H]1C[C@H](O)C1 (some centres not stated) | -4% | 0.87
O=C(N1C[C@@H]2CC[C@H](O)[C@@H]2C1)C1(C(F)F)CCC1 | -12% | 1.19
Nc1c(F)cc(Br)cc1F | -11% | 2.06
COc1cc(NC(=O)NCCCn2nc(C)nc2C)c2ncccc2c1 | -14% | 1.45
CO[C@H]1[C@@H]2CC[C@H]1CN(Cc1ccccc1Cn1cccn1)C2 | -2% | 0.45
Cc1ccc(CCNS(C)(=O)=O)c(C)c1 | 3% | -0.31
COC(=O)c1c(C)[nH]c(C(=O)N2CCCCCC2)c1C | -7% | 1.52
COc1ccc(F)cc1C(NC(=O)c1csnc1N)[C@H]1C[C@@H](O)C1 (some centres not stated) | 3% | -0.51
CC(C)c1noc([C@H](C)NCc2cccc3cc[nH]c23)n1 | 2% | -0.34
COc1ccc(-c2csc(NC(=O)CN3CCN(c4nccc(OC)n4)CC3)n2)c(OC)c1 | 14% | -1.84
COc1ccc(NC(=O)N(C2CCOCC2)[C@H]2CCN(S(C)(=O)=O)C2)cc1OC | 34% | -3.88
Cc1cc(NCCCc2csc(N)n2)n2nccc2n1 | -4% | 0.71
N#Cc1cccnc1N[C@H]1CC[C@H](c2nccc(O)n2)CC1 | -5% | 0.81
COc1ccc(-c2cccc(C(N)=O)n2)c2ccccc12 | 0% | 0.09
CCn1c(=O)c(C(=O)NCc2ccccn2)nn(-c2ccc(C)c(Cl)c2)c1=O | -3% | 0.32
CC1CCC2(CC1)N=C(c1ccccc1)C(=O)N2CC(=O)N[C@H]1CCc2ccccc21 (some centres not stated) | 39% | -4.45

SMILES | % Inhibition | Z score
Cn1cnnc1[C@@H]1CCCN1Cc1cnc(-c2ccccc2)o1 | 3% | -0.66
Cc1ccc(C(=O)NC[C@H]2CCN(c3cnn(C)c(=O)c3)C2)c(O)c1 | -12% | 1.15
CN(Cc1cc(-c2ccccc2)[nH]n1)C(=O)Cn1nnnc1CN1CCCC1 | -8% | 1.08
O=C(c1cnccn1)N(C[C@H]1CCCO1)C1(C(=O)NC2CCCC2)CCCCC1 | -8% | 0.88
Cc1cnn(CCCNC(=O)C2CCCCC2C(=O)N2CCCC2)c1 (configuration not stated) | -10% | 0.92
COc1ccc(C(=O)N2CC(Oc3nc4ccccc4s3)C2)c(OC)c1 | -17% | 1.96
Cc1nc(CNc2ncnc3c(F)cccc23)sc1C | -6% | 0.79
O=C(CCc1cccc2c1OCO2)NC[C@]12C[C@H]1COC21CCC1 | -7% | 1.28
Cc1ccc(C(=O)C(=O)N[C@@]2(C)CCS(=O)(=O)C2)cc1 | -6% | 1.17
C[C@@H]1Oc2cc(S(=O)(=O)N3CCN(C(=O)c4ccc(F)c(F)c4)CC3)c(Cl)cc2NC1=O | 6% | -0.6
COc1ccc(OCc2cc(C(=O)NCCc3ccccn3)n[nH]2)c(Cl)c1 | -11% | 2.21
CN(C)C[C@@H]1CN(C(=O)CCCc2ccccc2)C[C@@H]1CO | -4% | 0.65
CC[C@H](NC(=O)N1CCC(c2nc3ccccc3o2)CC1)c1nc(C)no1 | -3% | 0.62
Cc1nnc(NC(=O)c2cccc(-n3ccnn3)c2)s1 | -3% | 0.4
Cc1ccc(-c2ccc(=O)[nH]n2)cc1NC(=O)CN1CCCC1=O | 6% | -0.73
CCc1nocc1CNC1CCN(CC(F)F)CC1 | -10% | 1.05
CCN1C(=O)C(=O)N(Cc2cc(-c3ccc(Cl)cc3)no2)C1=O | -10% | 1.93
O=C(c1cc[nH]n1)N1CCC(Oc2cccc(C(F)(F)F)c2)CC1 | -6% | 0.81
CC[C@@H](C#N)N1CCN(C(=O)COC)CC1 | -2% | 0.28
CN(CC(=O)NC1CCCCCCC1)S(C)(=O)=O | -8% | 1.45
CS(=O)(=O)c1ccc(C(=O)N2CCC[C@H]2c2cccs2)cc1 | -2% | 0.36
Cc1cc(C(=O)NCC2CCN(C[C@@H]3CC=CCC3)CC2)nn1C | 10% | -1.34

SMILES | % Inhibition | Z score
c1ccc2c3c(c(CN4CCCCC4)cc2c1)COC3 | 0% | 0.05
C[C@@H](CNC(=O)c1ccc(CN(C)C)o1)COCc1ccccc1 | -13% | 2.35
Cc1cc(NC(=O)Cn2nc(Cc3ccccc3)[nH]c2=O)n(C)n1 | -12% | 1.82
CC(C)[C@@H](CO)NC(=O)C(O)c1ccccc1 (some centres not stated) | -19% | 2.12
CCOCC(=O)NCCn1ccc2ccn(CC)c2c1=O | -12% | 2.24
COc1ccc(OC)c([C@@H]2CCCN2c2nnc(-c3ccccn3)s2)c1 | -13% | 2.07
COc1ccc(-c2noc([C@H](C)O)c2C(=O)N2CCOCC2)cc1OC | 2% | -0.39
O=S(=O)(Cc1ccccc1)NCc1cccnc1N1CCCCCCC1 | 5% | -0.9
COC(=O)n1cc2c(n1)-c1ccccc1OC2 | 5% | -0.79
CN(C(=O)CCc1ccccn1)[C@H]1CCCN(Cc2ccccc2)C1 | -8% | 1.48
COc1ccc(-n2cnnc2)cc1NC(=O)c1cnc(N(C)C)nc1C | -14% | 1.36
CCn1cncc1[C@@H]1CCCCN1c1nc(N)nc(C(F)(F)F)n1 | 9% | -1.52
CC(C)c1[nH]ccc1C(=O)NCCn1cncc1-c1ccccc1 | 9% | -1.18
CCOc1cc(CN[C@H]2CCc3ccccc32)ccn1 | -16% | 1.83
CC(=O)NCC1CCN(c2nc3ccccc3c(=O)[nH]2)CC1 | -2% | 0.27
O=C(O)C1c2ccccc2C(=O)N(C2CCCCC2)C1c1ccccc1 (configuration not stated) | -8% | 1.08
Cc1ccccc1C(=O)N1[C@H](C(=O)NCc2ccccn2)COC12CCN(C(=O)Cc1cccs1)CC2 | -8% | 0.9
CN(C)C(=O)c1cnc(N(C)C)nc1[C@H]1CCN(Cc2ccncc2F)C1 | -8% | 0.99
Cc1cnc(C(=O)N2CC(Oc3cc(C)nc4ncnn34)C2)cn1 | 8% | -1.06
CCOC(=O)N1CC[C@H](NCc2ccc(-c3ncon3)cc2)C1 | -10% | 1.72
